Reference: the supplement of paper PMC4604168 (melanoma cell lines)
The other results are listed elsewhere or left out. Many values rest on one well or one pass, so single values are uncertain.

What was measured:
Assay in all cases: cell count relative to DMSO control; melanoma cells; higher = more viable cells
Conditions in all cases: library dose: standard library concentration; 72 h
[1] = test system: SkMel28
[2] = test system: SkMel2
[3] = test system: SkMel30
[4] = test system: SkMel5
[5] = test system: UACC257
[6] = test system: UACC62
[7] = test system: WM115
[8] = test system: WM1716
[9] = test system: WM3526
[10] = test system: WM1745
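Note: cells treated in 1,536-well plates, then fixed and DAPI-stained, with nuclei counted from automated high-throughput microscope images.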

SMILES	cell count [1] [%]	cell count [2] [%]	cell count [3] [%]	cell count [4] [%]	cell count [5] [%]	cell count [6] [%]	cell count [7] [%]	cell count [8] [%]	cell count [9] [%]	cell count [10] [%]
C[C@]12O[C@H](C[C@]1(O)CO)n1c3ccccc3c3c4c(c5c6ccccc6n2c5c31)CNC4=O [Lestaurtinib] + N#Cc1c(O)c2c(-c3ccc(-c4ccccc4O)cc3)csc2[nH]c1=O [A769662] (first compound 0.02 µM, partner dose 10 µM)	70.5	111	105	71.3	121	96.5	79.4	105	77.2	
Cn1cc(C2=C(c3cn(C4CCN(Cc5ccccn5)CC4)c4ccccc34)C(=O)NC2=O)c2ccccc21 [Enzastaurin] + O=C(Nc1ccccc1)c1cc([N+](=O)[O-])ccc1Cl [GW9662] (first compound 4 µM, partner dose 10 µM)	49.4	36.5	87.4	80.7	72.3	62.7	94.9	77.9	76.3	
Cn1cc(C2=C(c3cn(C4CCN(Cc5ccccn5)CC4)c4ccccc34)C(=O)NC2=O)c2ccccc21 [Enzastaurin] + CCc1ccc(CCOc2ccc(CC3SC(=O)NC3=O)cc2)nc1 [pioglitazone] (first compound 4 µM, partner dose 10 µM)	96.9	83.9	116	94.9	90.5	84.1	112	90.1	91	
N.N.[Cl][Pt][Cl] [cisplatin] + NCC(=O)Nc1ccc(-n2nc(C(F)(F)F)cc2-c2ccc3c(ccc4ccccc43)c2)cc1 [OSU03012] (first compound 8 µM, partner dose 5 µM)	69.2		62.8	71.9	72.4	86.1	76.8	83.8	56.2	121
C[C@]12O[C@H](C[C@]1(O)CO)n1c3ccccc3c3c4c(c5c6ccccc6n2c5c31)CNC4=O [Lestaurtinib] + O=C(Oc1ccc([N+](=O)[O-])cc1)N1CCC(C(O)(c2ccc3c(c2)OCO3)c2ccc3c(c2)OCO3)CC1 [JZL184] (first compound 0.02 µM, partner dose 5 µM)	68.9	83.5	79.3	59.6	86.2	70.4	77.5	80.8	63.2	
N.N.[Cl][Pt][Cl] [cisplatin] + COc1ccc(-c2ccc3c(N4CCOCC4)nc(N4C[C@@H](C)O[C@@H](C)C4)nc3n2)cc1CO [KU0063794] (first compound 8 µM, partner dose 0.1 µM)	69.9	74.7	84.1	66	80.6	68.3	74.9	80.3	73.5	
C[C@]12O[C@H](C[C@]1(O)CO)n1c3ccccc3c3c4c(c5c6ccccc6n2c5c31)CNC4=O [Lestaurtinib] + CC(C)CCN1c2nc(Nc3cc(F)c(O)c(F)c3)ncc2N(C)C(=O)C1C [BID1870] (first compound 0.02 µM, partner dose 1 µM)	49.8	61.9	49.3	63.9	74.2	49.9	53.3	72.4	45.2	
N.N.[Cl][Pt][Cl] [cisplatin] + O=C(O)C(=O)Nc1sc2c(c1C(=O)O)CCNC2 [TCS401] (first compound 8 µM, partner dose 8.33333 µM)	75.2	87.2	71.7	73.4	86.4	66.4	96.4	85	88.8	
N.N.[Cl][Pt][Cl] [cisplatin] + Oc1nc(-c2ccc(C(F)(F)F)cc2)nc2c1CSCC2 [XAV939] (first compound 8 µM, partner dose 10 µM)	65.9	85.5	105	69.1	72.7	81	83.8	45.6	82.3	
N.N.[Cl][Pt][Cl] [cisplatin] + CCc1ccc(CCOc2ccc(CC3SC(=O)NC3=O)cc2)nc1 [pioglitazone] (first compound 8 µM, partner dose 10 µM)	47	73.4	98.4	82	70.8	85.2	106	86	89.1	
N.N.[Cl][Pt][Cl] [cisplatin] + CC(C)CCN1c2nc(Nc3cc(F)c(O)c(F)c3)ncc2N(C)C(=O)C1C [BID1870] (first compound 8 µM, partner dose 1 µM)	83.7	89.7	93.3	110	71.1	75.9	90.7	80.8	71.1	
N.N.[Cl][Pt][Cl] [cisplatin] + CCN(CC)CCCCNc1ncc2cc(-c3cc(OC)cc(OC)c3)c(NC(=O)NC(C)(C)C)nc2n1 [PD173074] (first compound 8 µM, partner dose 0.5 µM)	58.5		93.7	87.6	82.7	104	89.7	83.1	88.3	
N.N.[Cl][Pt][Cl] [cisplatin] + O=C1NC(=O)/C(=C/c2ccc(-c3ccc(F)cc3O)o2)S1 [AS252424] (first compound 8 µM, partner dose 5 µM)	37.2	78.9	99.6	65.6	77.5	86	94.8	97.7	91	
C[C@]12O[C@H](C[C@]1(O)CO)n1c3ccccc3c3c4c(c5c6ccccc6n2c5c31)CNC4=O [Lestaurtinib] + CCc1ccc(CCOc2ccc(CC3SC(=O)NC3=O)cc2)nc1 [pioglitazone] (first compound 0.02 µM, partner dose 10 µM)	46.4	91.5	78.8	52.5	82.9	78.3	73.4	82.1	72.3	
Cn1cc(C2=C(c3cn(C4CCN(Cc5ccccn5)CC4)c4ccccc34)C(=O)NC2=O)c2ccccc21 [Enzastaurin] + Cc1cc([N+](=O)[O-])ccc1NS(=O)(=O)c1cc(Cl)ccc1Cl [FH535] (first compound 4 µM, partner dose 5 µM)	61.9		99.3	57.2	70.3	92.5	92.6	76.8	88.2	
C[As](C)SC[C@H](NC(=O)CC[C@H](N)C(=O)O)C(=O)NCC(=O)O [Darinaparsin] + C/C(O)=C(\C#N)C(=O)Nc1cc(Br)ccc1Br [LFM-A13] (first compound 2 µM, partner dose 10 µM)	68.1		77.4	64.3	78.1	86.1	77.3	66.8	76.5	84.3
C[C@]12O[C@H](C[C@]1(O)CO)n1c3ccccc3c3c4c(c5c6ccccc6n2c5c31)CNC4=O [Lestaurtinib] + COc1ccc2c(c1)CCC1C2CCC2(C)C(NCCCCCCN3C(=O)C=CC3=O)CCC12 [U73122] (first compound 0.02 µM, partner dose 2 µM)	67.3	92.9	74.5	55.5	89	63.5	73	78	70.4	
N.N.[Cl][Pt][Cl] [cisplatin] + COc1cc2ncnc(Nc3ccc(Oc4ccccc4)cc3)c2cc1OC [SrcI1] (first compound 8 µM, partner dose 10 µM)	73.8	96.4	73.4	67	63.5	60.8	71	82.6	65.9	
